In all, about 110,000 compounds were measured (“z-score”: median about -0.1, highest 2% from about 2 on). Some of the results follow. The source made the active and inactive calls.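 How the source made its calls: active means z-score in the third read window above 3 or below -3; inactive means the rest.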

The experiment concerns the target Metabotropic glutamate receptor 8 (Rattus norvegicus) (UniProt P70579). The experiment in a line: mGluR8 Gi/Go-coupled signaling modulation – cell-based, rat, thallium flux, HTS, primary screen (AID 488969). Conditions: HEK293 rat mGluR8, GIRK (G protein-gated inwardly rectifying potassium channel) thallium flux, FluoZin2; at 10 µM; stronger effect = higher value; submaximal glutamate (EC20) added with thallium.
Sequence of UniProt P70579 (P70579 whole entry, looked up): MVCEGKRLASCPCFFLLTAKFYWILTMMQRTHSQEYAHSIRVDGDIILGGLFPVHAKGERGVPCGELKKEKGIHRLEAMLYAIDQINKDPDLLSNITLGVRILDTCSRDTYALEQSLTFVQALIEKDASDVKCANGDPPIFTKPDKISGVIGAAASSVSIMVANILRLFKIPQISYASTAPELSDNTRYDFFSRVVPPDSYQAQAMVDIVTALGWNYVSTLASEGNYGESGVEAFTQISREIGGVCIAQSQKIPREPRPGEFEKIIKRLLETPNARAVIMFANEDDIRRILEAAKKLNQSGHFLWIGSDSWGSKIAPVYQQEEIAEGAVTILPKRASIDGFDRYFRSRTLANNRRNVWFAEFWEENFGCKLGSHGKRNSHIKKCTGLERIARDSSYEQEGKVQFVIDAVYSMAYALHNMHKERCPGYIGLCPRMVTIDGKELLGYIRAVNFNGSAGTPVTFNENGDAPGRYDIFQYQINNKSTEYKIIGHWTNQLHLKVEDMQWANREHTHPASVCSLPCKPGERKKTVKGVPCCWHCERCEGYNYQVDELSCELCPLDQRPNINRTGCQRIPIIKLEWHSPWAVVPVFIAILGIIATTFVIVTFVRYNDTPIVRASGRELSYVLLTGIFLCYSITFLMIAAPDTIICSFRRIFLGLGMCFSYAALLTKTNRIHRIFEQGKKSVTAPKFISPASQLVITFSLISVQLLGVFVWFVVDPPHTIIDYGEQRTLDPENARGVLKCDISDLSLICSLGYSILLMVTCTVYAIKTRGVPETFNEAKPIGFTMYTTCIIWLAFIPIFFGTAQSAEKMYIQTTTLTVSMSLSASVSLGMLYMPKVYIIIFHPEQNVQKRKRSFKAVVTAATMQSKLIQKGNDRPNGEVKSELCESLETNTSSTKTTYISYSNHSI
`Cc1ccccc1NS(=O)(=O)c1ccc2[nH]cc(C(=O)NCCCN3CCOCC3)c(=O)c2c1` gave a z-score of -0.131.
Take `COC(=O)CN(C(=S)Nc1ccccc1)C1CC(=O)N(c2ccc(OC)cc2)C1=O` (centres undefined): the z-score is -0.274.
With `Cc1cc2nnc(SCC(=O)NCc3cccs3)n2c(N)n1` the figure was -0.811; with `COc1cccc(C(=O)N(Cc2nc(-c3ccc(C)cc3)no2)C(C)C)c1`, 0.154.
Molecule `COc1cnc(SCc2ccc(Cl)cc2Cl)nc1Cl` had a z-score of -0.177.
With `O=C(NC12CC3CC(CC(C3)C1)C2)N1CCN(c2ccccn2)CC1` the figure was -0.264; with `COc1c(C(=O)NCCSC(C)(C)C)ccc2ccccc12`, -0.145; with `CC1CC(C)CN(C(=S)Nc2ccc(SC(F)F)cc2)C1` (centres undefined), active: 6.63.
Under `COC(=O)[C@H](CCSC)NC(=O)NCCc1ccc(F)cc1` stands -0.248.
`O=C(CSc1nc2ccccc2o1)Nc1nc2ccccc2s1` returned a z-score of -0.205.
In turn, `CC(Cc1c[nH]c2ccccc12)NC(=O)C1CCCNC1=O` (centres undefined) returned a z-score of -0.0293.
Under `Nc1ccc(C(=O)Nc2ccc3nc(-c4cccnc4)[nH]c3c2)cc1` stands -0.0375.
Under `O=C(COC(=O)/C=C/c1ccc([N+](=O)[O-])cc1)NC(c1ccccc1)c1ccccc1` stands 0.0953; under `O=C1/C(=C/c2ccc(C(=O)O)cc2)CCC/C1=C\c1ccc(C(=O)O)cc1`, 0.0249.
`O=C(NCCN1CCN(Cc2ccccc2Cl)CC1)Nc1ccccc1` had a z-score of -0.181.
Turning to `Cc1ccc(-c2nc3ncccc3o2)cc1NC(=O)c1cc2ccccc2o1`, the z-score was -0.0428.
Under `CCOC(=O)N1CCC(NC(=O)C2CCN(C(=O)N3CC(C)Oc4ccccc43)CC2)CC1` (centres undefined) stands -0.46; under `CNC(=O)CN1C(=O)c2ccccc2S1(=O)=O`, 0.0727; under `O=C(N/N=C/c1ccccc1Br)c1ccc(CSc2cccc3cccnc23)cc1`, 0.394.
As for `O=C(CCn1c(=O)sc2ccccc21)Nc1cccnc1`, the z-score is -0.18.
As for `Cc1sc2ncnc(OCC(=O)c3ccc(S(=O)(=O)N4CCCC4)cc3)c2c1C`, the z-score was -0.168.
Under `CCCN(CC1CC1)c1nc(N)c2c(N)nc(OC)cc2c1C#N` stands -0.104; under `CCN1CCN(c2oc(-c3ccc(OC)cc3)nc2C#N)CC1`, 0.225; under `CCn1nnnc1SCC(=O)Nc1nnc(C(C)C)s1`, 0.188.
Molecule `CC(C)N(C(=O)COC(=O)c1ccccc1C(=O)N1CCN(c2ccc(F)cc2)CC1)C(C)C` displayed a z-score of 0.192.
Under `COc1ccc(-c2cc3nc(C)c(CCC(=O)NC(C)CCc4ccco4)c(C)n3n2)c(OC)c1` (centres undefined) stands -0.467.
Consider `O=C(c1ccccc1)N1CCCC(c2ccc(Cl)cc2)=N1`, for which the z-score is -0.439.
Under `CCn1nc(C)cc1-c1n[nH]c(=S)n1N` stands -0.258; under `O=S(=O)(NCc1ccc2c(c1)OCO2)c1cnc[nH]1`, 0.285.
`O=C(c1cccs1)N1CCN(C(=O)C2CCCO2)CC1` (centres undefined) gave a z-score of -0.53.
With `CCOc1ccc(C(=O)NC2CCN(C(=O)N3CCCC3)CC2)cc1` the figure was 0.0864; with `COc1ccccc1-c1nnn(C/C(N)=N/O)n1`, -0.288.
With `COC(=O)C1=C(C)Nc2ccc(C)cc2S1`, the z-score is -1.05.
With `Cc1cccc(C(=O)Nc2cccc(C(=O)N/N=C/c3ccncc3)c2)c1` the figure was 0.416; with `O=C(Cc1coc2ccc3ccccc3c12)NC1CCCc2ccccc21` (centres undefined), -0.181.
As for `CCOC(=O)c1cc(CC)sc1/N=C/C1=C(O)CC(C)(C)CC1=O`, the z-score was -0.513.
`CC1(C)C2CCC1(CS(=O)(=O)Nc1ccc(S(=O)(=O)N3CCCCC3)cc1)C(=O)C2` (centres undefined) returned a z-score of -0.337.
The molecule `Cc1ccc(-c2nnc(SCC(=O)Nc3ccc4c(c3)oc3ccccc34)n2C)c(Cl)c1` came in with a z-score of 0.013.
Under `CCC(=O)N1CCN(c2ccc(Cl)cc2NC(=O)c2ccc(N3CCCC3)c([N+](=O)[O-])c2)CC1` stands -1.34.
In the case of `COc1ccccc1NC(=O)CN(c1ccc(C23CC4CC(CC(C4)C2)C3)cc1)S(C)(=O)=O`, the z-score was -0.0531.
With `CN1c2ccsc2/C(=N/NC(=O)c2c(F)cccc2F)CS1(=O)=O` the figure was 0.0596; with `CC1(C(=O)NC2CCCC2)CCC(=O)N1Cc1ccc2c(c1)OCO2` (centres undefined), 0.0571.
Under `COc1cc(/C=N/N2C(=O)C3C4c5ccccc5C(c5ccccc54)C3C2=O)ccc1O` (centres undefined) stands -0.257; under `O=C(NCc1ccco1)C(c1ccco1)N(C(=O)Cn1nnc2ccccc21)c1ccc2c(c1)CCC2` (centres undefined), -0.52.
`CCOc1cc(/C=N/NC(=O)c2cccs2)ccc1OC(=O)N1CCOCC1` gave a z-score of 0.027.
With `O=C1C2CSCN2C(=O)CN1CCCN1CCN(C(c2ccccc2)c2ccccc2)CC1` (centres undefined) the figure was -0.2; with `Clc1ccc(Cn2ncc3c(NCCN4CCOCC4)ncnc32)cc1`, -0.0527; with `CCCCNC(=O)c1cc(-c2ccc(OC)cc2)on1`, -0.379.
The molecule `CN(C)Cc1c(O)ccc2c3c(c(=O)oc12)CCCCC3` registered a z-score of 0.385.
For the molecule `NS(=O)(=O)c1ccc(CCNC(=O)CSc2ccccc2)cc1`, the z-score turned out to be 0.222.
With `Cc1ccccc1-n1ncc2c(SCC(=O)NCc3cccs3)ncnc21` the figure was 0.377.
Under `CN(C(=O)COC(=O)c1nc(-c2ccccc2)n(-c2ccccc2)n1)C1CCS(=O)(=O)C1` (centres undefined) stands -0.248; under `Cc1[nH]c(C(=O)O)c(C)c1C(=O)OC(C)C`, 0.61.
With `Clc1ccc(Cl)c(-c2nn3c(COc4ccccc4)nnc3s2)c1` the figure was -0.0514; with `CCOc1ccccc1NC(=O)N1CCC(NC(=O)c2ccccc2C)CC1`, 0.154.
`Clc1cccc(-c2nnc3sc(-c4ccccc4)nn23)c1` came in with a z-score of -0.275.
Under `O=C1OC(c2cccs2)=N/C1=C\c1ccc(-c2cccc(Cl)c2)o1` stands -0.0971.
With `CN(C)S(=O)(=O)c1ccc(C(=O)Nc2ccccc2F)cc1` the figure was 0.0546.
Under `O=C(CSc1nnc2scc(-c3ccc(Cl)cc3)n12)NCc1ccco1` stands -0.632.
In turn, `COC(=O)c1sc(NC(=O)/C=C/c2ccc(C)o2)nc1C` gave a z-score of -0.15.
Take `O=[N+]([O-])c1ccc(C=Nc2ccc(Cl)cc2Cl)s1`: the z-score was -0.132.
Turning to `O=C(c1cccs1)N1CCN(CCCc2ccccc2)CC1`, the z-score was -0.15.
Under `Clc1ccc(CSc2cc3c(nn2)-c2ccccc2CC3)cc1Cl` stands 0.0327.
With `COc1ccc(/C=N/NS(=O)(=O)c2ccccc2)cc1OC(=O)c1ccc(C)cc1` the figure was -0.389; with `O=C(O)c1ccc(COc2ccc(Cl)cc2)o1`, -0.229; with `CCCNC(=O)CS(=O)Cc1nc(-c2cccc(OC)c2)oc1C` (centres undefined), 0.115.
Under `O=S(=O)(NCC(c1ccco1)N1CCN(c2ccccc2)CC1)c1ccc(F)cc1` (centres undefined) stands 0.133.
Take `O=C(c1ccc(Cl)cc1)c1ccc(OCC(O)CN2CCCCC2)cc1` (centres undefined): the z-score was 1.56.
For the molecule `COc1cccc2cc(C(=O)N(C)C3CCN(C)CC3)c(=O)oc12`, the z-score was -0.0112.
On to `COCCn1c(SCC(=O)NCc2ccco2)nnc1C(C)C`, for which the z-score was found to be 0.369.
On to `Cc1occc1-c1nnc(SCC(=O)Nc2nccs2)n1CCc1ccccc1`, for which the z-score was -2.74.
Take `COC(=O)CSc1nnc(-c2ccncc2)n1N`: the z-score was 0.0257.
Turning to `CN(C)c1ccc(C(=O)c2ccccc2)cc1`, the z-score stood at 0.00483.
Under `COc1ccccc1OCC(=O)Nn1c(=S)[nH]c2ncccc2c1=O` stands 1.87; under `COCCNc1nc(SCc2ccccc2)nc2sc3c(c12)CCC3`, 0.854; under `Cc1cc(C)cc(N(CC(=O)NCc2ccco2)S(=O)(=O)c2c(C)noc2C)c1`, -0.278.
With `CC(C)(C)c1ccc(S(=O)(=O)NCc2ccc(C(=O)N3CCOCC3)cc2)cc1` the figure was -0.704; with `O=C(NC12CC3CC(CC(C3)C1)C2)c1ccc(-c2ccc(Cl)cc2)o1`, -0.444.
`CNC(=S)NNC(=O)c1sccc1OCc1ccc(C)cc1` returned a z-score of -0.339.
With `COC(=O)c1ccc(-c2nn(C)c(=O)c3ccccc23)cc1` the figure was -0.125; with `O=C(C1Cc2ccccc2CN1S(=O)(=O)c1cccs1)N1CCCCCC1` (centres undefined), -0.0293; with `CC(=O)c1ccc(Sc2nnnn2-c2ccccc2)c([N+](=O)[O-])c1`, -0.166.
With `COc1ccccc1CNS(=O)(=O)c1cccc(S(=O)(=O)N2CCOCC2)c1` the figure was 0.49; with `O=C(/C=C/c1ccccc1F)c1ccoc1`, -0.0402.
With `CC(CCc1ccc(O)cc1)NC1C2CC3CC(C2)CC1C3` (centres undefined) the figure was 0.0712; with `CCN(C(=O)CSc1ccc2c(c1)OCCO2)C1CCS(=O)(=O)C1` (centres undefined), 1.48.
`CNC(=O)C1CC(=O)N(Cc2ccc(OC)c(OC)c2)C(=Nc2ccc(OC)cc2)S1` (centres undefined) gave a z-score of -0.199.
Under `CCc1ccc(C2=NN(CCC(=O)NC3CC3)C(=O)CC2)cc1` stands 0.0546; under `NC(=O)C1(N2CCCCC2)CCN(CC(=O)Nc2cc(Cl)ccc2Cl)CC1`, 0.943; under `O=C(NCCc1cccs1)C1CC(c2ccc([N+](=O)[O-])cc2)=NO1` (centres undefined), -0.122.
The molecule `CC1(C)Cc2noc(N)c2C(C)(C)N1O` gave a z-score of -0.062.
`CN(c1ccccc1C(=O)N1CCCC1)S(C)(=O)=O`: the z-score came to 0.0147.
In turn, `O=C(COC(=O)COc1ccccc1[N+](=O)[O-])Nc1ccccc1Br` gave a z-score of -0.59.
Under `CCn1nnc(NC(=O)c2c(OC)cccc2OC)n1` stands -0.842; under `Cc1cc(C)c2nc(C(F)(F)F)nc(NCCCN3CCOCC3)c2c1`, -0.573.
`COc1ccc(-c2csc(C3=C(O)CN(Cc4ccc(S(N)(=O)=O)cc4)C3=N)n2)cc1OC` yielded a z-score of 1.13.
With `CCOC(=O)c1c(NC(=O)C2CCN(S(=O)(=O)c3ccc(Cl)cc3)CC2)sc2c1CCCC2` the figure was 0.0212; with `Cc1cc(C(=O)O)c(CSCc2cc(C(=O)O)oc2C)o1`, -0.129.
Consider `CCOC(=O)N1CCN(C(=O)CN(c2cc(C(F)(F)F)ccc2Cl)S(C)(=O)=O)CC1`, for which the z-score came out at 0.421.
Under `COc1ccc(/C=C/C(=O)c2ccc(O)cc2)cc1CN1CCOCC1` stands 0.0326; under `O=C(COC(=O)c1cc(Br)c(Br)s1)NCCC1=CCCCC1`, 0.0854.
In turn, `NC(=O)COC(=O)CCCc1nc2ccccc2s1` registered a z-score of 0.269.
The molecule `Cn1cc(/C=C2\SC(=O)N(c3ccccc3)C2=O)c2ccccc21` had a z-score of -0.469.
Under `COC(=O)CSc1nc(N)c2c3c(sc2n1)C(c1ccccc1)SC(c1ccccc1)C3` (centres undefined) stands 0.318; under `CC(=O)C1=C(C)OC(N)=C(C#N)C1c1cc2cc(C)c(C)cc2nc1Cl` (centres undefined), -0.284.
Under `Cc1cccc2cc3c(N)c(C(=O)N4CCCc5ccccc54)sc3nc12` stands -0.135; under `O=C(CN1C(=O)S/C(=C\c2ccccc2)C1=O)NNC(=O)c1ccccc1O`, -0.409.
With `O=c1nc(N2CCOCC2)nc2n1CCO2` the figure was 0.234; with `Cc1cc(N)n2nc(-c3ccc(C(C)(C)C)cc3)cc2n1`, -0.0328.

For the origin of these results see PubChem BioAssay AID488969 (Vanderbilt High Throughput Screening Facility, 2010).
